Reference: PubChem BioAssay AID1745853 (National Center for Advancing Translational Sciences (NCATS), 2022)
This is one part of the list. These are further read-outs of the screen, such as a control signal, another cell line or another target. No call is given for them.

Tests used:
Test in all cases: Primary Screen for Target Class Profiling of Small Molecule Inhibitors of Methyltransferases
[1] = target: Glycine N-methyltransferase (Homo sapiens) (UniProt Q14749); details: purified enzyme, MTase-Glo SAH luminescence; measured here: GNMT inhibition; at 40 µM; stronger effect = lower value
In short: (§1)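 Each enzyme was reacted with SAM and its substrate, with compounds tested once at 40 uM; SAH formed was read by MTase-Glo luminescence.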

[2] = target: Guanidinoacetate N-methyltransferase (Homo sapiens) (UniProt Q14353); details: purified enzyme, MTase-Glo SAH luminescence; measured here: GAMT inhibition; at 40 µM; stronger effect = lower value
In short: as §1

[3] = target: Histamine N-methyltransferase (Homo sapiens) (UniProt P50135); details: purified enzyme, MTase-Glo SAH luminescence; measured here: HNMT inhibition; at 40 µM; stronger effect = lower value
In short: as §1

[4] = target: Nicotinamide N-methyltransferase (Homo sapiens) (UniProt P40261); details: purified enzyme, MTase-Glo SAH luminescence; measured here: NNMT inhibition; at 40 µM; stronger effect = lower value
In short: as §1

[5] = target: Phenylethanolamine N-methyltransferase (Homo sapiens) (UniProt P11086); details: purified enzyme, MTase-Glo SAH luminescence; measured here: PNMT inhibition; at 40 µM; stronger effect = lower value
In short: as §1
% is scaled to controls: 0 for no effect and ±100 for the full control effect.

| Compound | activity change, negative = inhibition [1] | activity change, negative = inhibition [2] | activity change, negative = inhibition [3] | activity change, negative = inhibition [4] | activity change, negative = inhibition [5] |
| --- | --- | --- | --- | --- | --- |
| COc1ccccc1NC(=O)N1Cc2ccccc2-n2cccc2C1c1ccccc1Cl (stereo not given) | 6.86% | 0.916% | -0.057% | -1.7% | 4.79% |
| COc1ccc2[nH]cc(CCN)c2c1 | -7.42% | 1.83% | -14% | -5.29% | 1.71% |
| CCCS(=O)(=O)NC[C@H]1C[C@@H]2CCN1C[C@@H]2c1cc(C2CCCCC2)nn1C | -3.25% | -2.39% | -6.62% | -10.9% | -4.08% |
| CCOc1ccc(NC(=O)N2Cc3ccccc3-n3cccc3C2c2cccc(Cl)c2)cc1 (stereo not given) | 16% | 2.62% | 9.89% | 8.82% | 10.9% |
| COc1ccc(C2c3cccn3-c3ccccc3CN2C(=O)Nc2cccc(Br)c2)cc1 (stereo not given) | 14.4% | 0.743% | 6.68% | 4.11% | 9.73% |
| O=C(NCc1ccco1)N1Cc2ccccc2-n2cccc2C1c1ccccc1 (stereo not given) | 11.3% | 0.493% | 4.47% | 3.21% | 9.48% |
| C[C@H]1C/C=C/[C@H]2[C@@H]3O[C@]3(C)[C@@H](C)[C@H]3[C@H](Cc4ccccc4)NC(=O)[C@]32OC(=O)O/C=C/[C@@](C)(O)C1=O | -2.76% | -1.06% | 2.85% | -14.8% | 1.16% |
| CCCSc1ncc(CN2CCCC3(CCNC3)C2)cn1 (stereo not given) | -4.47% | -9.66% | -24.8% | -14.3% | -11.3% |
| CC12CCC3C(C1)c1c(cc(O)c(C(=O)c4ccccc4)c1OC3(C)C)O2 (stereo not given) | -2% | 1.63% | 1.33% | -16.9% | -3.73% |
| COC1=CC(=O)O[C@@H](CCc2ccccc2)C1 | -4.14% | -4.31% | 2.84% | -20.5% | -1.15% |
| CC(C)CCNC(=O)N1Cc2ccccc2-n2cccc2C1c1ccc(Cl)cc1 (stereo not given) | 0.527% | 3.96% | 7.63% | 1.61% | 8.18% |
| CC1=CC2OC3CC(O)[C@](C)([C@@]2(C)C(O)C1=O)[C@]31CO1 (stereo not given in full) | 0.171% | 8.49% | 11.9% | -5.92% | 5.85% |
| CCOC(=O)c1ccccc1NC(=O)N1Cc2ccccc2-n2cccc2C1c1cccc(Cl)c1 (stereo not given) | 8.23% | 1.06% | 2.49% | 7.34% | 5.64% |
| C[C@@H]1C[C@@H](O)[C@]2(O)O[C@@H]3C[C@@]4(C=O)C(CC[C@@H]5C4CC[C@]4(C)[C@@H](C6=CC(=O)OC6)CC[C@]54O)C[C@H]3O[C@@H]2O1 (stereo not given in full) | -6.71% | -7.54% | 3.83% | -23% | -0.704% |
| Cn1nc(-c2cccs2)cc1[C@H]1CN2CC[C@H]1C[C@@H]2CNC(=O)C1CCCCC1 | -8% | -7.98% | -11.6% | -19.9% | -11.8% |
| CN(C)c1ccc(C2c3cccn3-c3ccccc3CN2C(=O)NCc2ccc(F)cc2)cc1 (stereo not given) | 11.9% | 0% | 3.93% | 3.18% | 6.75% |
